One assay concerns Y181C mutant HIV. Briefly: microbe, parasite or virus in culture. The following applies: Table 2, Y181C mutant; read-out: EC50 Y181C. The source says: (§1) With respect to suitable concentrations of contemplated compounds in pharmaceutical compositions, it should be appreciated that a person of ordinary skill in the art can readily adjust the amount of the compound to achieve inhibition of the reverse transcriptase and/or HIV replication. […] Alternatively, inhibition of the reverse transcriptase may be monitored in vivo using RT-PCR to determine the amount of copies of viral DNA and/or RNA in blood or lymph nodes (containing HIV infected cells). It is generally contemplated that suitable concentrations will achieve a serum concentration of between 1 nM and 100 uM, and in some cases between 0.01 nM and 1 nM).
(§2) Compounds of the invention were tested against the wild-type and four mutant HIV reverse transcriptases. The results are listed in Table 1 and Table 2 as EC50 (nM) and IC50 (nM). In Tables 1 and 2, A represents <50 nM, B is between 50 and 100 nM, and C is >100 nM. ND is not determined.

Another assay concerns Y188L mutant HIV. Kind of assay: microbe, parasite or virus in culture. The following applies: Table 2, Y188L mutant; read-out: EC50 Y188L.
From the text: as §1, §2

For another assay, the target named is T1, Y181C RT (Human immunodeficiency virus type 1 group M subtype B, UniProt P04585, Y768C).
T1 construct: tested against the wild-type and four mutant HIV reverse transcriptases
Kind of assay: biochemical. On the set-up: species or system HIV. The conditions noted are these: Table 2, Y181C RT; read-out: IC50 Y181C RT. On the procedure:
as §2

Another assay concerns the target T2, Y188L RT (Human immunodeficiency virus type 1 group M subtype B, UniProt P04585, Y775L).
T2 construct: tested against the wild-type and four mutant HIV reverse transcriptases
Kind of assay: biochemical. The conditions noted are these: Table 2, Y188L RT; read-out: IC50 Y188L RT. Set-up: species or system HIV. The procedure: as §2

What is called EC50 is the concentration giving half of the maximal effect. A word on the IC50: it is the midpoint of a concentration-inhibition curve. Regarding `NCCC(N)C(=O)NS(=O)(=O)c1ccc(NC(=O)CSc2nnc(Br)n2-c2ccc(C3CC3)c3ccccc23)c(Cl)c1` (centres unmarked) [Compound 62], the concentration for a half-maximal effect (EC50) in the assay with Y181C mutant HIV and with Y188L mutant HIV was under 50 nM throughout. In addition, the IC50 was under 50 nM at Y181C RT and over 100 nM on Y188L RT.
For `Cc1cc(S(N)(=O)=O)ccc1NC(=O)CSc1nnc(Br)n1-c1ccc(C)c2c1CCCC2` [Compound 51], the EC50 with Y181C mutant HIV and in the assay on Y188L mutant HIV was under 50 nM each time. The IC50 is under 50 nM at Y181C RT and 50 to 100 nM on Y188L RT.
